Each structure is given as a SMILES string. Whole data set: some 110,000 compounds, median “z-score” near -0.1, cut for the highest 2% near 2. Some of the results follow. Active and inactive are the calls of the source.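 The calls were made as follows: active = z-score in the third read window above 3 or below -3; inactive = the rest.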

This assay deals with Metabotropic glutamate receptor 8 (Rattus norvegicus) (UniProt P70579). Nature of the assay: rat mGluR8 modulators via GIRK flux, primary screen, cell-based, thallium flux, HTS (AID 488969). Particulars: HEK293 rat mGluR8, GIRK (G protein-gated inwardly rectifying potassium channel) thallium flux, FluoZin2; at 10 µM; stronger effect = higher value; submaximal glutamate (EC20) added with thallium.
Chain of UniProt P70579 (P70579 whole entry, looked up): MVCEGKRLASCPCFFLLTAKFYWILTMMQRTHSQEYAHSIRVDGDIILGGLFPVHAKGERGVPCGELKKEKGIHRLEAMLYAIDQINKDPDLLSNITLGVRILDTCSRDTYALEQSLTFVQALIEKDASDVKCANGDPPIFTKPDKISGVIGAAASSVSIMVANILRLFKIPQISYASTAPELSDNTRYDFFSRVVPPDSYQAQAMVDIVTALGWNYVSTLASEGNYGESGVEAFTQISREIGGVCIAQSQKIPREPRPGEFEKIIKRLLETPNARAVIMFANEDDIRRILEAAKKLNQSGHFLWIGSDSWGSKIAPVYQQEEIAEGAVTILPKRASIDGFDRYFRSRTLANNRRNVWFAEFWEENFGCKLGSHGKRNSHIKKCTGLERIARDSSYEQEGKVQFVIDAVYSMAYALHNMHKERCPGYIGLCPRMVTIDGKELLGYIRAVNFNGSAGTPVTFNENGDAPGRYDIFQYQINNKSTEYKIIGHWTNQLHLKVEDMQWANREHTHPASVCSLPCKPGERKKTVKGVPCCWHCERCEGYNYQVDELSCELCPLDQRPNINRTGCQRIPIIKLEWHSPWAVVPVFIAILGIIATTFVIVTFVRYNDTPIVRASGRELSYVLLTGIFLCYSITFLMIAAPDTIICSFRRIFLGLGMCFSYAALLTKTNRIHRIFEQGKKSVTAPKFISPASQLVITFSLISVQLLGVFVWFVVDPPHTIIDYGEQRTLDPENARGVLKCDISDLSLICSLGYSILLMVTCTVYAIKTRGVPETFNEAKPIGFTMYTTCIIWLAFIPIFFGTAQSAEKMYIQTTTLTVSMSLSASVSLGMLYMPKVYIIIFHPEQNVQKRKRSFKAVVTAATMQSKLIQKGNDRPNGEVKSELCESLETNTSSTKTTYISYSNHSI
For the molecule `CCc1ccc(-n2nc3ccc(NC(=O)c4ccc5c(c4)OCO5)cc3n2)cc1`, the z-score was -0.204.
On to `COC(=O)c1cc(NC(=O)C2COc3ccccc3O2)ccc1Cl` (centres undefined), for which the z-score is -0.36.
For `Cn1c(SCC(=O)Nc2ccc(F)cc2)nnc1-c1cccnc1` the value was -0.349.
Next, `Cc1ccc(NC(=O)C2CCN(S(=O)(=O)c3ccc(F)cc3)CC2)cc1`: -0.0485; `CCOC(=O)c1cnc(SC)nc1Oc1cccc(NS(=O)(=O)c2ccc(C)cc2)c1`: -0.962.
`CCCCNC(=O)c1onc(CCl)c1C(=O)OC` displayed a z-score of 0.00479.
Take `COc1cc(CNn2c(C)n[nH]c2=S)cc(Cl)c1OCc1ccccc1`: the z-score was -0.366.
For `CCOc1cccc(CNCCNC(=O)c2nonc2N)c1` the value was -0.576.
Next, `CCN=C1S/C(=C\c2cn(C(C)=O)nc2-c2ccccc2)C(=O)N1CC`: -0.379; `O=S(=O)(NCc1ccccc1)c1ccc(Cl)cc1`: 2.77.
Next, `Cc1ccc(NC(=O)NC(=O)CSc2nnc(-c3ccc(Cl)cc3Cl)n2N)c(C)c1`: -0.0115; `CCOC(=O)N1CCN(C2CC(=O)N(c3ccc(Cl)c(Cl)c3)C2=O)CC1` (centres undefined): 0.175.
For the molecule `COC(=O)c1cc(COC(=O)c2ccc(OC)c(S(=O)(=O)N3CCCC3)c2)oc1C`, the z-score is -0.713.
Next, `CC(=O)c1cccc(NC=C2C(=O)OC3(CCCCC3)OC2=O)c1`: -0.292; `C/C(=N\Nc1ccc(C(=O)O)cc1)c1nc2ccccc2n1C`: -0.702.
For `CCOc1ccc(CCNC(=O)COC(=O)c2ccco2)cc1OCC` the value was -0.519; for `COc1ccc(C)cc1S(=O)(=O)N(C)CC(=O)N1CCCCC1`, 0.0196.
As for `CC(C)Cn1c(SCC(=O)N2CCCCC2)nc2ccccc2c1=O`, the z-score is -0.537.
As for `COC(=O)C1CCCN1C(=O)c1cccs1` (centres undefined), the z-score was active: 5.05.
Next, `COc1ccc(CCNC(=O)c2ccc(N3CCCC3=O)cc2)cc1OC`: 0.885; `Cc1ccc(C)c(C(=O)COc2ccc(C)nc2[N+](=O)[O-])c1`: -0.0394.
`CCOC(=O)c1nsnc1NCCSC(=N)N` returned a z-score of -0.12.
Next, `S=c1[nH]nc(-c2cccnc2)o1`: -0.348; `O=C(Cn1cnc2ccccc2c1=O)c1cccs1`: -0.0304; `CCC1(C(=O)c2ccccc2)C2c3cc(Br)ccc3OC(=O)C21C(=O)N1CCOCC1` (centres undefined): 0.194.
Next, `NC1=NC(c2ccccc2Cl)n2c(nc3ccccc32)N1` (centres undefined): 1.47.
With `COCc1nc(-c2cc(Br)ccc2OC)no1`, the z-score was -0.14.
The molecule `COc1ccc(CCNC(=O)c2ccc(N3CCCC3=O)cc2)cc1` displayed a z-score of 0.0212.
As to `COc1ccccc1C(=O)Nc1ccon1`, the z-score was -0.11.
Next, `COc1ccc(CCNC(=O)C2CCCN(S(C)(=O)=O)C2)cc1OC` (centres undefined): 0.474; `COc1nc(NCC(C)C)nc(Oc2ccc(OCc3ccccc3)nn2)n1`: -0.19; `N#CC(C(=O)Nc1cccc(Cl)c1)=C1Nc2ccccc2N1`: 0.00324.
Next, `COCCNCCOCCOc1ccc(Cl)c(C)c1`: -0.271; `O=C(NCc1cccnc1)c1cc(Sc2ccc(F)cc2F)nc2ccccc12`: -0.458; `CCCCC1=C([O-])C2N=CC=CC2=[N+](c2ccccn2)C1=O` (centres undefined): -0.104.
Next, `Cn1cnc([N+](=O)[O-])c1Sc1ncccc1N`: -0.104; `S=C(Nc1ccccc1)N1CCCCCC1`: -0.16; `CCCc1nc2ccc(NC(=O)NCCC(=O)OCC)cc2c(=O)n1Cc1cccc(Cl)c1`: 0.042.
On to `O=C(NCc1ccccc1)N[C@@H](Cc1c[nH]c2ccccc12)C(=O)O`, for which the z-score was -0.0284.
Next, `Cc1ccc(C(=O)c2sc3c(c2N)c(=O)[nH]c(=O)n3CCc2ccccc2)cc1`: -0.0339; `Cc1ccc(NC2=NCC(=O)N2C2CCCC2)c(C)c1`: -0.0384.
The molecule `O=S(=O)(c1ccc2nc(SCc3cccc(Cl)c3)[nH]c2c1)N1CCOCC1` showed a z-score of -0.3.
Next, `C=CCn1c(SCC(=O)N2CCOCC2)nc(O)cc1=O`: -0.237; `C=CCNCCCCOc1ccc(OCC)cc1`: 0.793; `CCc1nc(N)c(C#N)c(-c2ccc(OC)c(OC)c2)c1C`: 0.0142.
Next, `COc1ccc2c(c1)C(c1ccc([N+](=O)[O-])cc1)=NNC(c1ccco1)=N2`: -0.252; `CCc1cc(C(=O)N=Nc2c(O)[nH]c3ccc([N+](=O)[O-])cc23)c2ccccc2n1`: -0.481; `CC(C)C[C@H](NC(=O)Nc1cccc(C(F)(F)F)c1)C(=O)O`: -0.499.
Next, `Cc1ccc(C(=O)Oc2csc(=S)n2C(=O)c2ccc(C)cc2)cc1`: 0.28.
`CCCCN1C2CCCC1CC(NC(=O)N(C(C)C)C(C)C)C2` (centres undefined) yielded a z-score of -0.0384.
Next, `COc1cc(CC(=O)OCC(=O)Nc2cc([N+](=O)[O-])ccc2F)cc(OC)c1OC`: -0.0237; `Cc1cccc(NC(=O)Cn2nnc(C(=O)NCc3cccs3)c2N)c1C`: -0.0432.
The molecule `COc1cc2[nH]c(=O)n(CCCC(=O)NCCc3ccccc3)c(=O)c2cc1OC` yielded a z-score of 0.133.
As for `CCCCOCCCNC(=O)CC(C)c1ccccc1` (centres undefined), the z-score was -0.578.
Regarding `CC1CC(=O)NN=C1c1ccc(NCCO)c([N+](=O)[O-])c1` (centres undefined), the z-score was determined as 0.315.
The molecule `Cc1cc(C)c(C#N)c(SCC(=O)Nc2ccc3c(c2)OCO3)n1` yielded a z-score of 0.149.
Take `Cc1csc2nc(CNC(=O)c3ccco3)cn12`: the z-score came to 0.19.
Next, `CC1CCC(NC(=O)c2cc3c(=O)n(C)c4ccccc4c3n2C)CC1` (centres undefined): -0.698; `CCCn1c2ccccc2c2nc3ccccc3nc21`: -0.228.
Next, `CCC(CC)c1nnc(NC(=O)CS(=O)(=O)Cc2ccccc2)s1`: -0.217.
For the molecule `O=c1[nH]c2c(c(=O)n1Cc1ccccc1)CCC2`, the z-score is -0.106.
For `CCOC(=O)/C(C#N)=C1/SC(CC)C(=O)N1c1ccc(C)cc1` (centres undefined) the value was -0.0471; for `CC(C)Oc1nnnn1-c1ccccc1`, -0.0267.
Next, `CCCNC(=O)NC(=O)COC(=O)CC(NC(N)=O)c1ccc(Cl)cc1` (centres undefined): -0.33.
The molecule `COc1cccc2cc(C(=O)N(C)C)c(=O)oc12` gave a z-score of -0.0473.
For `OC(CN1CCN(c2ccccn2)CC1)Cn1c2ccccc2c2ccccc21` (centres undefined) the value was 0.599.
Turning to `N#CC1=C(N2CCCCC2)c2cc3c(n2C1=O)CCCC3`, the z-score was -1.02.
For `C=C1C2(C(=O)Nc3nccs3)CCC(C2)C1(C)C` (centres undefined) the value was -0.355; for `Fc1ccc(/C=C2\CCCC3=C2NC(=S)NC3c2ccc(F)cc2)cc1` (centres undefined), -0.0195.
For `Cc1c(Cl)cccc1NC(=O)COC(=O)CCc1nc2ccccc2n1-c1ccccc1` the value was -0.254.
Molecule `O=[N+]([O-])c1ccc2nc(-c3ccc(Cl)cc3)n(OCc3ccccc3)c2c1` yielded a z-score of -0.249.
For `CCCC(C(=O)NC1CCCCC1)N(Cc1ccco1)C(=O)CNS(=O)(=O)c1ccccc1` (centres undefined) the value was -0.578; for `CCOCCCNS(=O)(=O)c1ccc(OC)c(Cl)c1Cl`, -0.0705.
Next, `O=C(NC12CC3CC(CC(C3)C1)C2)c1cncc(O)c1`: -0.626.
Next, `CN(C)S(=O)(=O)c1cccc(NC(=O)COC(=O)CCc2nc3ccccc3s2)c1`: -0.757.
Regarding `COc1cc(C)c(N)cc1C(C)C`, the z-score turned out to be 2.12.
Next, `COc1ccc(-c2csc(NC3=NCCCCC3)n2)cc1`: -0.262; `O=C(c1ccc(OCC2CCCO2)cc1)N1CCN(c2ccccc2)CC1` (centres undefined): -0.525.
With `Cc1c(NC(=O)C2CC=CCC2C(=O)O)c(=O)n(-c2ccccc2)n1C` (centres undefined), the z-score is 2.16.
`O=C(NC(N1CCCC1)C(Cl)(Cl)Cl)c1ccccc1` (centres undefined) came in with a z-score of -0.174.
For the molecule `CCN1CCN(C(=S)NCCc2ccccc2)CC1`, the z-score is 0.392.
Next, `CCc1ccc(OCC(=O)O/N=C(\N)Cc2ccc([N+](=O)[O-])cc2)cc1`: 0.0339; `CC(C)C(=O)Nc1ccc(NC(=O)c2cccc(F)c2)cn1`: 0.794; `COc1ccc(C(=O)Nc2cccc(-c3cc4ccccc4oc3=O)c2)cc1[N+](=O)[O-]`: -0.159.
Regarding `Cc1cc(NC(=O)CN2CCCC(C)C2)n(-c2nc3ccccc3s2)n1` (centres undefined), the z-score is -0.272.
In the case of `COc1ccc(CC(=O)Nc2ccc(S(=O)(=O)Nc3nccc(C)n3)cc2)cc1`, the z-score came out at 0.14.
`C=C(C)COc1ccc(-c2[nH]ncc2Oc2cccc(OC)c2)c(O)c1` gave a z-score of 0.82.
For `CCC1CCCCN1C(=O)c1c[nH]c2ccc(S(=O)(=O)N(C)c3ccc(Cl)cc3)cc2c1=O` (centres undefined) the value was -0.479; for `O=Cc1cn(-c2ccccc2)nc1-c1ccc2c(c1)OCCO2`, -1.11.
For `CCC(=O)Nc1sc2c(c1C#N)CC(C)(C)NC2(C)C` the value was 0.0582; for `COc1ccc(/C=C/C(=O)Nc2ccc(-n3nncc3-c3ccc(OC)c(OC)c3)cc2)cc1OC`, -0.638.
Next, `CCNC(=O)CCn1nc(-c2ccc(Cl)cc2)c2ccccc2c1=O`: -0.723.
For `COC(=O)c1ccc(NC(=O)C2CC2)o1`, the z-score is -0.0163.
Consider `CCN1CCN(c2nc3ccccc3nc2C(C#N)S(=O)(=O)c2ccc(C)cc2)CC1` (centres undefined), for which the z-score is -0.171.
Next, `COc1ccc(S(=O)(=O)Nc2ccc(S(=O)(=O)N3CCCC3)cc2)cc1`: 1.31.
In turn, `C/C=C/c1ccc(OCCCCOc2ccccc2F)c(OC)c1` had a z-score of -0.398.
Regarding `Cc1ccc(C(=O)NNc2nc3ccccc3nc2C(F)(F)F)cc1`, the z-score is active: 5.19.
`O=C(/C=C\NCC(=O)c1ccccc1)c1ccc2ccccc2c1` came in with a z-score of -0.0887.
For `Cc1cc(C(c2ccc(C)o2)c2ccc(C)o2)c(O)c([N+](=O)[O-])c1` the value was -1.26; for `CC(C)OCCCNC(=O)Cn1ncc2c(=O)oc3ccccc3c21`, 0.481; for `O=C(OCc1c(Cl)cccc1Cl)c1cccnc1`, -0.283.
Molecule `Cc1cc(NC(=O)CSc2ncn(-c3ccccc3)n2)no1` displayed a z-score of -0.12.
Next, `S=C(NCCc1ccccc1)Nc1ccccn1`: 0.129; `Cc1csc(NC(=O)c2cccn2C)n1`: 0.29.
For `CC(C)(CO)Nc1ccc([N+](=O)[O-])cc1[N+](=O)[O-]` the value was -0.255.
`CCc1c(-c2n[nH]c(=S)n2Cc2ccccc2)csc1C` had a z-score of 2.88.
The molecule `CCNC(=O)CSc1ncnc2sccc12` had a z-score of 0.162.
Next, `C=C(C)COc1ccc(-c2[nH]ncc2-c2ccccc2)c(O)c1`: -0.178; `CC(=O)NCCC(=O)Nc1ccc(C)c(F)c1`: 0.255; `O=C(NCc1ccco1)c1cc(-c2cccc(Cl)c2)on1`: 0.0775.
`CC(=O)Nc1ccc(S(=O)(=O)NCCC(=O)NCCc2ccc(F)cc2)cc1`: the z-score was -0.326.
Next, `Cc1cc(C)cc(NC(=O)CSc2ncc(S(=O)(=O)c3ccccc3)c(=O)[nH]2)c1`: -0.122.
The molecule `CCOC(=O)c1[nH]c2ccc(F)cc2c1NC(=O)CCN1CCSCC1` registered a z-score of -0.0212.
For `Cc1cc(C)cc(OCC(=O)Nc2ccc(N3CCN(S(C)(=O)=O)CC3)cc2)c1` the value was -0.576.
